Test results published in a collection of fitness landscapes (doi:10.1016/j.celrep.2020.107928).
Whole data set: some 81,000 sequences, median “one-hybrid fitness for binding NBS DNA” near -0.1, cut for the highest 2% near 0.36. Some of the results follow.

B1: Caulobacter ParB omega fusion; a variant is named by its letters at X, in order, B8GW30 (parent)
chain: MESVVVGEPGMSEGRRGLGRGLSALLGEVDAAPAQAPGEQLGGSREAPIEILQRNPDQPRRTFREEDLEDLSNSIREKGVLQPILVRPSPDTAGEYQIVAGERAWRAAQRAGLKTVPIMVRELDDLAVLEIGIIENVQRADLNVLEEALSYKVLMEKFERTQENIAQTIGKSXSHVANXMRLLXLPDEVQSYLVSGELTAXHARAIAAAADPVALAKQIIEGGLSVRETEALARKAPNLSAGKSKGGRPPRVKDTDTQALESDLSSVLGLDVSIDHRGSTGTLTITYATLEQLDDLCNRLTRGI

Variants of: B1
Experiment: one-hybrid fitness for binding NBS DNA (the Noc-binding site; scaled: cognate 1, non-cognate 0); higher = stronger binding
Conditions: with NBS DNA site
Procedure, shortened: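 Selection: bacterial one-hybrid in E. coli USO, HIS3 reporter with the site 19 bp from the promoter, 48 hours at 37°C on M9-minus-histidine plus 0.1 mM IPTG and 5 mM 3-AT. Libraries were Caulobacter ParB with four randomised specificity codons, sequenced on Illumina before and after selection. Fitness is the rescaled log change in variant-to-wild-type read ratio, anchored to the cognate and non-cognate sites.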

Variant | one-hybrid fitness for binding NBS DNA
GKGC | ≤ 0.2
VKGK | ≤ 0.2
TSCL | ≤ 0.2
TSTQ | ≤ 0.2
QMVA | ≤ 0.2
CAGI | ≤ 0.2
SWHS | ≤ 0.2
WSQP | ≤ 0.2
AGTD | ≤ 0.2
RSPP | ≤ 0.2
QLNN | ≤ 0.2
FLMG | ≤ 0.2
AMQG | ≤ 0.2
NITS | ≤ 0.2
HIQC | ≤ 0.2
MSRF | ≤ 0.2
FAKA | ≤ 0.2
RGTS | ≤ 0.2
MLQA | ≤ 0.2
QWRG | ≤ 0.2
VSDE | ≤ 0.2
DSIS | ≤ 0.2
EGFS | ≤ 0.2
GRVS | ≤ 0.2
KCKR | 0.397
YQRM | ≤ 0.2

Variant | one-hybrid fitness for binding NBS DNA
RDRE | ≤ 0.2
GPLT | ≤ 0.2
TVCR | ≤ 0.2
PRMY | ≤ 0.2
RWPA | ≤ 0.2
QCRM | 0.505
CHAI | ≤ 0.2
QHCV | ≤ 0.2
CSFN | ≤ 0.2
QQKA | 0.628
SYCW | ≤ 0.2
KTAY | ≤ 0.2
TDYV | ≤ 0.2
KNSI | ≤ 0.2
QSGQ | ≤ 0.2
SVTG | ≤ 0.2
NRMR | ≤ 0.2
QSYC | ≤ 0.2
YIRS | ≤ 0.2
SEPD | ≤ 0.2
IAAL | ≤ 0.2
TTPM | ≤ 0.2
MDPS | ≤ 0.2
LTME | ≤ 0.2
WGGG | ≤ 0.2
VPQV | ≤ 0.2

Variant | one-hybrid fitness for binding NBS DNA
KNEG | ≤ 0.2
RTND | ≤ 0.2
QKMN | ≤ 0.2
ISKL | ≤ 0.2
YGWG | ≤ 0.2
QDCR | ≤ 0.2
RKGY | 0.209
NCYC | ≤ 0.2
TGNR | ≤ 0.2
SQCC | ≤ 0.2
PEGC | ≤ 0.2
KKGL | ≤ 0.2
QRGC | 0.402
HGSG | ≤ 0.2
VSYR | ≤ 0.2
EIAF | 0.266
HPRY | ≤ 0.2
LALQ | ≤ 0.2
AMGA | ≤ 0.2
RESV | ≤ 0.2
NHHP | ≤ 0.2
LCWA | ≤ 0.2
RGIE | ≤ 0.2
NHYG | ≤ 0.2
LAIG | ≤ 0.2
RDAV | ≤ 0.2

Variant | one-hybrid fitness for binding NBS DNA
AAYP | ≤ 0.2
TQLR | ≤ 0.2
HYGS | ≤ 0.2
RNNY | ≤ 0.2
VGLC | ≤ 0.2
CQLG | ≤ 0.2
AYPW | ≤ 0.2
PIIT | ≤ 0.2
ALIT | ≤ 0.2
MATP | ≤ 0.2
LNKR | ≤ 0.2
SNHE | ≤ 0.2
AVLQ | ≤ 0.2
KWSC | ≤ 0.2
ITFC | ≤ 0.2
PRAY | ≤ 0.2
NNTR | ≤ 0.2
WKTG | ≤ 0.2
QEVV | ≤ 0.2
VLEL | ≤ 0.2
ARND | ≤ 0.2
SNHI | ≤ 0.2
ETMT | ≤ 0.2
NPYW | ≤ 0.2
QQDS | 0.282
RMYG | ≤ 0.2

Variant | one-hybrid fitness for binding NBS DNA
WLTW | ≤ 0.2
LLIN | ≤ 0.2
HTHH | ≤ 0.2
PYLD | ≤ 0.2
SSQS | ≤ 0.2
DYMC | ≤ 0.2
LASW | ≤ 0.2
SCTY | ≤ 0.2
MRRF | ≤ 0.2
EIGA | ≤ 0.2
TPSV | ≤ 0.2
ANSG | ≤ 0.2
FAMG | ≤ 0.2
CVRP | ≤ 0.2
IERS | ≤ 0.2
VPNM | ≤ 0.2
LMTI | ≤ 0.2
RQPD | ≤ 0.2
RRRW | 0.285
TYPR | ≤ 0.2
DHKA | ≤ 0.2
PLAA | ≤ 0.2
VWSH | ≤ 0.2
ILQT | ≤ 0.2
SLLM | ≤ 0.2
LTPA | ≤ 0.2

Variant | one-hybrid fitness for binding NBS DNA
KREL | ≤ 0.2
HYRC | ≤ 0.2
GFCG | ≤ 0.2
DMLT | ≤ 0.2
KGTY | ≤ 0.2
DRTF | ≤ 0.2
VLHW | ≤ 0.2
RLPP | ≤ 0.2
RGDT | ≤ 0.2
HPCS | ≤ 0.2
EWPR | ≤ 0.2
NRDH | ≤ 0.2
LLLD | ≤ 0.2
AEGG | ≤ 0.2
GINS | ≤ 0.2
SALF | ≤ 0.2
NGPQ | ≤ 0.2
PCPL | ≤ 0.2
GCVG | ≤ 0.2
LYHW | ≤ 0.2
VGIC | ≤ 0.2
YNSR | ≤ 0.2
PQCR | ≤ 0.2
